This sample is rich in variants without activity. A value given as a limit tells only on which side of the number the result lay.

To fix the notation:
B1: TPR 5TU (parent)
chain: GGAUCUUCUCGAUCUAACAAAAAAGACAAAUCUGCCACAAAGCUUGAGAGCAUCUUCGGAUGCAGAGGCGGCAGCCUUCGGUGGCGCGAUAGCGCCAACGUUCUCAACUAUGACACGCAAAACGCGUGCUCCGUUGAAUGGAGUUUAUCAUG

This data set covers variants of B1. Briefly: polymerase ribozyme fitness, log enrichment relative to wild type (log ratio); higher = more active; in vitro selection for triplet polymerase activity. In a few lines:
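Both subunits of a heterodimeric triplet polymerase ribozyme were given their own mutant library, built by PCR and transcribed. Each library was annealed with a biotinylated primer, the partner subunit and triplets, incubated frozen at −7 °C, and its extended constructs gel-excised, captured on streptavidin beads and amplified by RT-PCR, all in one round done in triplicate. Fitness is the logarithm of genotype enrichment relative to wild-type enrichment, with replicates averaged by inverse-variance weighting. That logarithm is base 2, and Illumina-sequenced genotypes needed ≥10 input reads and ≥1 read per output.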
For GGAUCUUCUCGAUCUAACAAAAAAGACAAAUCUGCCACAAAGCUUGAGAGCAUUUUCCGAUGCAGAGGCGGCAGCCUUCGGUGGCGGGAUAGCGCCAAGGUUGUCAACUAUGACACGCAAAACGCGUGCUCCGUGGAAUGGAGUUUAUCAUG [C54U G58C C87G C99G C103G U135G], the “polymerase ribozyme fitness (log ratio)” value is not above -4.2.

Consider GGAUCUUCUCGAUCUAACAAAAAAGACAAAUCUGCCACAAAGCUUGAGAGCAUUUUCGGAUGCAGAGCCGGCAGCCUUCGGUGGCGCGAUAGCGCCAACGUUCUCAACUAUGACACGCAAAACGCGUGCUCCGUUGAAUGGAGUUUAUCAUG [C54U G68C], for which the “polymerase ribozyme fitness (log ratio)” value was not above -4.2.

GGAUCUUCUCGAUCUAACAAAAAAGACAAAUCUGCCACAAAGCUUGAGAGCAUUUUCGGAUGCAGAGGCGGCAGCCUUCGGUGGCGCCAUAGCGCGAACGUUCUCAACUAUGACACGCAAAACGCGUGCUCCGUUGACUGAAGUUUAUCAUG [C54U G88C C96G A138C G141A]: the “polymerase ribozyme fitness (log ratio)” value was not above -4.2.

For the variant GGAUCUUCUCGAUCUAACAAAAAAGACAAAUCUGCCACAAAGCUUGAGAGCAUUUUCGGAUGCAGAGAUGGCAGCCUUCGAUGGCGCGAUGGCGCCAACGUUGUCAACUGUGACACGCAAAACGCGUGCUCCGUUGAAUGGAGUUUAUCAUG [C54U G68A C69U G81A A91G C103G A110G], the “polymerase ribozyme fitness (log ratio)” value was not above -4.2.

Take GGAUCUUCUCGAUCUAACAAAAAAGACAAAUCUGCCACAAAGCUUGAGAGCAUUUUCGGAUGCAUAGGCGGCUGCCUUCGGUGGCGCGAUUGCGCCAACGUUCUCAAGUAUGACACGCAAAACGCGUGCUCCGUUGAAUGGAGUUUAUCAUG [C54U G65U A73U A91U C108G]: the “polymerase ribozyme fitness (log ratio)” value was not above -4.2.

For the variant GGAUCUUCUCGAUCUAACAAAAAAGACAAAUCUGCCACAAAGCUUGAGAGCAUUUUCGGAUGCAGAGGCGGCAGCCUUCGGUGGCGCGAUAGCGCCAACGUUCUCAACUAUGACACGUAAAACGUGUGCUCCGUUGAAAGGAGUUUAUCAUG [C54U C118U C125U U139A], the “polymerase ribozyme fitness (log ratio)” value was not above -4.2.

For GGAUCUUCUCGAUCUAACAAAAAAGACAAAUCUGCCACAAAGCUUGAGAGCAUUUUCGGAUGCAGAGGCGGCAGCGUUCGGUGGAGCGAUAGCGCCAACGUUCUCAACUAUGACACGCAAAACGCGUGCUCCGUUGAAGGGAAUUUAUCAUG [C54U C76G C85A U139G G143A], the “polymerase ribozyme fitness (log ratio)” value is not above -4.2.

As for GGAUCUUCUCGAUCUAACAAAAAAGACAAAUCUGCCACAAAGCUUGAGAGCAUUUUCGCGUGCAGAGGCGGCAGCCUUCGGUGGCGCGAUAGCGCCAACGUUCUCAACUAUGACACGCAAAUCGCGUGCUCCGUUGAAUGGAGUUUAUCAUG [C54U G59C A60G A122U], the “polymerase ribozyme fitness (log ratio)” value is 0.186.

As for GGAUCUUCUCGAUCUAACAAAAAAGACAAAUCUGCCACAAAGCUUGAGAGCAUUUUCGGAUGCAGAGGCGGCAGCCUUCGGUGGCGCGAUAGGGCCAACGUUCUCAACUAUGACACGCAAAACGCGUGCUCCGUUGAAUGGCGUUUAACAUG [C54U C93G A142C U148A], the “polymerase ribozyme fitness (log ratio)” value is not above -4.2.

With GGAUCUUCUCGAUCUAACAAAAAAGACAAAUCUGCCACAAAGCUUGAGAGCAUUUUCGGAUGCAGAGGCGGCAGCCUUCGGUGGUGCGAUAGCGACAACGUUCUCAACUAUGACACGCAAAACGCGUGCUCCGUUGAAUGGAGUUUAUCAUG [C54U C85U C95A], the “polymerase ribozyme fitness (log ratio)” value was -1.84.

Turning to GGAUCUUCUCGAUCUAACAAAAAAGACAAAUCUGCCACAAAGCUUGAGAGCAUUUUCGGAUGCAGAGGCGGCAGCCUUGGGUGGUGCGAUAGCGCCAACGUUCUCAACUAUGACACGCAAAACGCGUGCUCCGUUGAAUGGAGUUUAACAUG [C54U C79G C85U U148A], the “polymerase ribozyme fitness (log ratio)” value was not above -4.2.

In the case of GGAUCUUCUCGAUCUAACAAAAAAGACAAAUCUGCCACAAAGCUUGAGAGCAUUUUCGGAUGCAGAGGCGUCAGCCUUCCGUGGCGCGAUAUCGCCAACGUUCUCAACUCUGACACGCAAAACGCGUGCUCCGUUGAAUGGAGUUUAUCAUG [C54U G71U G80C G92U A110C], the “polymerase ribozyme fitness (log ratio)” value is not above -4.2.

With GGAUCUUCUCGAUCUAACAAAAAAGACAAAUCUGCCACAAAGCUUGAGAGCAUUUUCGGAUGCAGAGGCGGCAGCCUUCGGUGACGCGAUAGCGCCAACGUUCUCAACUUUGACACGCAAAACGCGUGCUCCGUUGAAUGGAGUUUAUCAUG [C54U G84A A110U], the “polymerase ribozyme fitness (log ratio)” value was not above -4.2.

Take GGAUCUUCUCGAUCUAACAAAAAAGACAAAUCUGCCACAAAGCUUGAGAGCAUUUUCAGAUGCAGAGGCGGCAGCCUUCGGUGGCGCGAUAGCGCCAACGUUCUCAACUAUGACACGCAAAACGCGUGCUCCGUUGAAUGGAGUUUAUCAUG [C54U G58A]: the “polymerase ribozyme fitness (log ratio)” value came out at 0.498.

In the case of GGAUCUUCUCGAUCUAACAAAAAAGACAAAUCUGCCACAAAGCUUGAGAGCAUUUUCGGAUGCAGAGGCGGCAGCCUUCGGUGGCGCGAUAGCGCCAACGUUCUCAAAUAUGACACGCAAAACGCGUGCUCCGUUGAAUGGAGUUUAUCAUG [C54U C108A], the “polymerase ribozyme fitness (log ratio)” value is not above -4.2.

Consider GGAUCUUCUCGAUCUAACAAAAAAGACAAAUCUGCCACAAAGCUUGAGAGCAUUUUCGGAUGCAGAGGCGGCAGCCUUCGGUGGUGCGAUAGCGCCAACGUUCUCAACUAUGACACGCAAAACGCGUGUUCCGUUGAAUGGAGUUUAUCAUG [C54U C85U C129U], for which the “polymerase ribozyme fitness (log ratio)” value was -0.134.

In the case of GGAUCUUCUCGAUCUAACAAAAAAGACAAAUCUGCCACAAAGCUUGAGAGCAUUUUCGGAUGCAGAGGCGGCAGCCUUCGGUGGCGCGAUAGCGGCAGCGUUCUCAACUAUGACACGCAAAACGCGUGCUCCGUUGAAUGGAGUUUAUCAUG [C54U C95G A98G], the “polymerase ribozyme fitness (log ratio)” value is -2.01.

In the case of GGAUCUUCUCGAUCUAACAAAAAAGACAAAUCUGCCACAAAGCUUGAGAGCAUUUUCGGAUGCAGAGGCGGCAGCCUUCGGUGGCGCGAUAGCGCUAACGUUCUCAACUAUGACACGUAAAACGCGUGCUCCGUUGAAUGGAGUUUAUCAUG [C54U C96U C118U], the “polymerase ribozyme fitness (log ratio)” value was -0.868.

For GGAUCUUCUCGAUCUAACAAAAAAGACAAAUCUGCCACAAAGCUUGAGAGCAUUUUCGGAUGCAGAGGCGGCAGCCUUCGGUGACGCGAUAGCGCCUACGUUCUCAACUAUGACACGCAAAACGCGUGCUCCGUUGAAUGGAGUUUAUCAUG [C54U G84A A97U], the “polymerase ribozyme fitness (log ratio)” value is -1.27.

(Values after the RNAGym collection of RNA variant scans (doi:10.1073/pnas.2313332121).)
